Source: PubChem BioAssay AID485294 (National Center for Advancing Translational Sciences (NCATS), 2010)
The campaign covered roughly 370,000 compounds. About 150 (0.041%) were called active. Inconclusive means that the source gave no clear call. Such entries were picked first, then a sample of the others. Calls come from the whole dose curve; as a rule, active = well fitted inhibition curve with a large enough effect; inconclusive = small, poorly fitted or top-dose-only effect; inactive = flat fitted curve, though single readings scatter. Potencies of inconclusive entries are left out as doubtful fits.

target: Beta-lactamase (Escherichia coli (strain K12)) (UniProt P00811); experiment: qHTS Inhibitors of AmpC Beta-Lactamase (assay with detergent); conditions: AmpC hydrolysis of nitrocefin, absorbance 480 nm, 0.01% Triton; activity change, negative = inhibition: at 114 µM (top of the series); note: nearly all actives have a fitted effect of over 25% in size;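 for activity change, negative = inhibition: 0% = no-compound wells and -100% = no-enzyme wells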
Sequence of UniProt P00811 (P00811 whole entry, looked up): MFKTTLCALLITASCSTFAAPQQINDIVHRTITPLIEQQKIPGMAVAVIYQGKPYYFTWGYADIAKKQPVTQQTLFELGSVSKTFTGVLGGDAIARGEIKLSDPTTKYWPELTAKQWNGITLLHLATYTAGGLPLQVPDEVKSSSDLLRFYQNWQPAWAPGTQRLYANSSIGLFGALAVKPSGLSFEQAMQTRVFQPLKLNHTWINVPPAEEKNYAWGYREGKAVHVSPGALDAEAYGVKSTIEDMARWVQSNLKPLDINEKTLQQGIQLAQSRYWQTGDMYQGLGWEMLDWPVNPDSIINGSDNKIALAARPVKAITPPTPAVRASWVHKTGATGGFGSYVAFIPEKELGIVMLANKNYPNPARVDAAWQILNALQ
Outline: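 20 mM phosphate pH 7.0 + 0.01% (detergent screen) or 0.0001% Triton X-100; 5.3 nM AmpC reagent; cpd preinc 15 min RT; nitrocefin (800 uM stock) to start; A480 q20 s × 4 min; Activity was normalised to no-enzyme and no-compound control wells.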
Potency is the fitted concentration of half-maximal effect; tags give direction and shape of the fitted curve.

Compound | Potency | activity change, negative = inhibition
COc1ccccc1NC(=O)CN1CCC(C(=O)c2ccc(F)cc2)CC1 | inconclusive [inhibitor, partial curve] | 
CC1(C)CC[C@]2(C(=O)O)CC[C@]3(C)C(=CCC4[C@@]5(C)CC[C@H](O)C(C)(C)C5CC[C@]43C)C2C1 (stereo partly specified) | inconclusive [inhibitor, full curve, poor fit] | 
COc1ccc(S(=O)(=O)NN(C)C(=O)c2nn(-c3ccccc3)ccc2=O)cc1 |  | inactive: -2.75%
N/C(=N\OC(=O)Cc1ccccc1)c1cccc(Br)c1 | inconclusive [inhibitor, full curve, poor fit] | 
COC(=O)C(Nc1ccccc1Cl)(c1cc(C)c(O)c(C)c1)C(F)(F)F (stereo unspecified) | inconclusive [inhibitor, full curve, poor fit] | 
CCOc1ccccc1-c1cc(C(=O)N/N=C/c2ccc3c(c2)OCO3)c2ccccc2n1 | inconclusive [inhibitor, full curve, poor fit] | 
O=C(Cn1nc(Cc2cccnc2)c2ccccc2c1=O)NCc1ccc(F)cc1 | inconclusive [inhibitor, full curve, poor fit] | 
CC1=C(C(=O)Nc2ccccc2)C(c2ccncc2)n2nnnc2N1 (stereo unspecified) |  | inactive: 1.49%
O=C(CN1CCN(Cc2ccc(F)cc2)CC1)Nc1nc2ccccc2s1 |  | inactive: -17%
Cc1ccc(NC(=O)Cn2cc(S(=O)(=O)c3ccc(F)cc3)c(=O)c3cc4c(cc32)OCO4)cc1 | inconclusive [inhibitor, single point] | 
O=C(Nc1cccc(O)c1)c1cc(-c2ccco2)on1 |  | inactive: 0.332%
Brc1csc(C=Nc2ccc3c(c2)OCCOCCOCCOCCO3)c1 | inconclusive [inhibitor, full curve, poor fit] | 
O=C(Nc1cc(S(=O)(=O)Nc2ccc(Cl)cc2)ccc1O)c1ccc(S(=O)(=O)N2CCCCCC2)cc1 |  | inactive: -6.05%
CC(=O)c1cccc(Nc2c3c(nc4ccccc24)CCC3)c1 | inconclusive [inhibitor, partial curve] | 
Cc1noc(C)c1COC(=O)COc1ccc2c(C)cc(=O)oc2c1 | inconclusive [inhibitor, partial curve, poor fit] | 
COC(=O)Cc1ccc(NC(=O)c2ccc(Br)o2)cc1 | inconclusive [inhibitor, partial curve] | 
O=C(O)c1ccc(S(=O)(=O)N2CCC(NC(=O)C3CCCCC3)CC2)cc1 | inconclusive [inhibitor, partial curve] | 
C=C(C(=O)c1ccccc1)C(CC(=O)c1ccccc1)c1ccccc1 (stereo unspecified) |  | inactive: -1.92%
Cc1ccccc1-c1nc(CS(=O)CC(=O)NCc2ccccc2)c(C)o1 (stereo unspecified) | inconclusive [inhibitor, single point] | 
COc1ccc(-c2c(NC(=O)c3ccco3)n(C)c3ccccc3c2=O)cc1 |  | inactive: 2.53%
O=C(NCc1ccc(F)cc1)c1ccc(CSc2nc3ccncc3n2Cc2ccc(F)cc2)cc1 |  | inactive: 19%
O=C(/C=C/c1ccco1)NCCc1ccc(F)cc1 |  | inactive: -5.23%
COc1ccc2c(C)cc(SCc3c(C)noc3C)nc2c1 | inconclusive [inhibitor, single point] | 

Compound | Potency | activity change, negative = inhibition
Cc1ccc(-c2nc(CS(=O)CC(=O)NCCC(C)C)c(C)o2)cc1 (stereo unspecified) | inconclusive [inhibitor, full curve, poor fit] | 
O=C(NCc1ccco1)/C(=C\c1ccco1)NC(=O)c1ccc(Br)o1 | inconclusive [inhibitor, full curve, poor fit] | 
COc1ccc(NC(=O)c2ccc(S(=O)(=O)NCc3cccnc3)cc2)cc1 |  | inactive: -0.24%
Cc1cc(=S)n(-c2ccccc2)n1C |  | inactive: 3.29%
CCOC(CNC(=O)C1CCN(S(=O)(=O)c2ccc3nc4c(c(C(=O)O)c3c2)CC(C)CC4)CC1)OCC (stereo unspecified) | inconclusive [inhibitor, full curve, poor fit] | 
O=C(CSC1=NCCS1)N1CCOCC1 | inconclusive [inhibitor, partial curve, poor fit] | 
Cc1ccccc1Nc1nc(N)nc(COC(=O)[C@@H](NC(=O)c2c(F)cccc2F)C(C)C)n1 | inconclusive [inhibitor, partial curve, poor fit] | 
Cc1cccn2c(CNCCc3ccccn3)c(C(=O)N3CCOCC3)nc12 |  | inactive: 5.39%
CC(C)Oc1ccc(C2C(C(=O)c3ccco3)=C(O)C(=O)N2Cc2cccnc2)cc1 (stereo unspecified) | inconclusive [inhibitor, single point] | 
COc1ccc(CNC(=O)c2ccc(Cn3nc(C)cc3C)o2)cc1 | inconclusive [inhibitor, partial curve] | 
CC(C)Oc1cccc(-c2cc(C(=O)NN3CCOCC3)c3ccccc3n2)c1 |  | inactive: 5.21%
COC(=O)Cn1c(C(F)(F)F)nc2ccccc21 | inconclusive [inhibitor, partial curve] | 
COc1cccc(CN2CC(C(=O)NCc3cccc(Cl)c3)CCC2=O)c1 (stereo unspecified) | inconclusive [inhibitor, partial curve, poor fit] | 
CC(C(=O)O)n1nnc2ccccc21 (stereo unspecified) |  | inactive: 5%
Cc1ccc(S(=O)(=O)N(CC(=O)NCc2ccncc2)C2CCCCC2)cc1 | inconclusive [inhibitor, full curve, poor fit] | 
Cc1ccc(C(C)C)c(OCCNC(=O)c2cncc(Br)c2)c1 | inconclusive [inhibitor, full curve] | 
CCN1C(=NCC2CC2)N[C@@H](c2cccc(C(F)(F)F)c2)C(C(=O)OC)=C1C | inactive | 
NNC(=O)CN1CCCc2ccccc21 |  | inactive: -10.7%
CCSc1nnc(Nc2ccccc2)s1 |  | inactive: -10.2%
O=C(Nc1nnc(SCC(=O)N2CCCc3ccccc32)s1)c1cccc2ccccc12 |  | inactive: 0.595%
CC(Oc1ccccc1Cl)C(=O)N1CCOCC1 (stereo unspecified) |  | inactive: 0.448%
CC1=NCC(C)c2c1[nH]c1ccccc21 (stereo unspecified) | inconclusive [inhibitor, full curve, poor fit] | 
O=C(CCN1CCN(c2ccccc2)CC1)c1ccc(Br)cc1 |  | inactive: 0.405%
